The labels stand for the following.
B1: Ab#F (antibody, human IgG4 S228P, kappa)
heavy: EVQLVQSGAEVKKPGASVKVSCKASGYTFTSYYMYWVRQAPGQGLEWIGGINPSNGGTNFNEKFKNRATLTVDKSTSTAYMELSSLRSEDTAVYYCTREGNPYYTMNYWGQGTLVTVSSASTKGPSVFPLAPCSRSTSESTAALGCLVKDYFPEPVTVSWNSGALTSGVHTFPAVLQSSGLYSLSSVVTVPSSSLGTKTYTCNVDHKPSNTKVDKRV[human IgG4 Fc with S228P (EU numbers) not listed]
light: DVVMTQSPLSLPVTIGQPASISCKSSQSLLESDGKTYLNWLQQRPGQSPRRLIYLVSKLDSGVPDRFSGSGSGTDFTLKISRVEAEDVGVYYCWQGTHFPWTFGGGTKVEIKRTVAAPSVFIFPPSDEQLKSGTASVVCLLNNFYPREAKVQWKVDNALQSGNSQESVTEQDSKDSTYSLSSTLTLSKADYEKHKVYACEVTHQGLSSPVTKSFNRGEC
B2: Ab#J (antibody, human IgG1, kappa)
heavy: EVQLVQSGAEVKKPGASVKVSCKASGYTFTSYYMYWVRQAPGQGLEWIGGINPSNGGTNFNEKFKNRATLTVDKSTSTAYMELSSLRSEDTAVYYCTREGNPYYTMNYWGQGTLVTVSS[human IgG1 constant region with changes not listed]
light: B1 light
B3: Ab#R (antibody, human IgG4 S228P, kappa, F234A L235A)
heavy: EVQLVQSGAEVKKPGASVKVSCKASGYTFTSYYMYWVRQAPGQGLEWIGGINPSNGGTNFNEKFKNRATLTVDKSTSTAYMELSSLRSEDTAVYYCTREGNPYYTMNYWGQGTLVTVSSASTKGPSVFPLAPCSRSTSESTAALGCLVKDYFPEPVTVSWNSGALTSGVHTFPAVLQSSGLYSLSSVVTVPSSSLGTKTYTCNVDHKPSNTKVDKRV[human IgG4 Fc with S228P F234A L235A (EU numbers) not listed]
light: B1 light

A word on the Kd: it is the equilibrium constant for the complex coming apart. Lower therefore signals tighter binding.

For this assay, the target named is Cx43 (peptide used in the Biacore affinity assay of Example 1). The assay is described as follows: SPR Biacore T200, antibody and Cx43 peptide; format and peptide not given. In general terms: In SPR one partner is held on a chip, and binding of the other changes the refractive index at the surface.
As for B1, the Kd stood at 0.0335 nM.

Molecule B2 showed an equilibrium dissociation constant (Kd) of 12.6 nM.

The molecule B3 came in with a dissociation constant Kd of 49.2 nM.

Source of the values: patent US20210163581A1.
